Sequences with one replicate were seen in a single cluster, so their values are uncertain.
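Note: ATP exposure 15 min at 22 °C before imaging.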

This data set concerns ATP. Briefly: switch fluorescence ratio, 500 uM ATP over buffer (Cy3 cluster intensity, sum of 5 cycles each) (fold (ratio)); higher = stronger signal-on switching upon ATP binding; sequences stand for … in TCGTCGGCAGCGTCAGATGTGTATAAGAGACAGTTTTTTTTTTTTTTTTTTTTTTTTT…TC. The settings on record: aptamer strand: ATP DNA aptamer (quencher-CACCTGGGGGAGTATTGCGGAGGAAGG + anchor), 100 nM annealed; ATP concentration: 500 uM; one replicate. An outline of the steps: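 Values give the fluorescence ratio for each switch-domain sequence, averaged from per-cluster ratios of summed target-cycle to summed buffer-cycle Cy3 intensity. The Cy3-labelled switching-strand clusters sat on a modified Illumina MiSeq flow-cell, were annealed to 100 nM quencher-labelled ATP aptamer, and were imaged in selection buffer, then after 15 min with 500 uM ATP at 22 °C. Five cycles ran with NaOH stripping and re-annealing between them, and clusters outside 100-1000 RFU were excluded.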
As for CAGTCTAGAC, the switch fluorescence ratio worked out at 1.04.

Regarding AAGAAATTCT, the switch fluorescence ratio is 0.992.

As to ACCTAACTTC, the switch fluorescence ratio was determined as 1.2.

For CAAGGGGTGT, the switch fluorescence ratio was 0.999.

With AATGAATTTA, the switch fluorescence ratio worked out at 1.01.

In the case of GGCGCCACAA, the switch fluorescence ratio was 0.979.

In the case of TGTTGAGGAG, the switch fluorescence ratio is 1.01.

Consider CTAGTTTCGT, for which the switch fluorescence ratio was 1.04.

Consider ATCGGTAATA, for which the switch fluorescence ratio worked out at 1.19.

Consider TACTGGTTAA, for which the switch fluorescence ratio is 1.2.

With CGGAAGACAA, the switch fluorescence ratio was 1.16.

Consider AGACCCAGTA, for which the switch fluorescence ratio worked out at 1.01.

For the sequence TCCAAGCGGC, the switch fluorescence ratio was 1.56.

Turning to CACTTGATA, the switch fluorescence ratio came out at 1.02.

On to CGAGAAAAGC, for which the switch fluorescence ratio is 0.99.

CACGTGAGTC: the switch fluorescence ratio stood at 0.972.

With TATGCTCGGT, the switch fluorescence ratio came to 1.01.

Regarding CAGTTTTTAA, the switch fluorescence ratio was 0.99.

Take ACTATTCCCC: the switch fluorescence ratio was determined as 1.07.

For AATGTGTAGG, the switch fluorescence ratio turned out to be 0.999.

In the case of AGATCACGT, the switch fluorescence ratio is 1.01.

On to GCTGCATTG, for which the switch fluorescence ratio was determined as 1.02.

Take CTTGATTCCT: the switch fluorescence ratio was determined as 1.01.

Turning to TTTTAAAGCC, the switch fluorescence ratio came to 1.01.

Take TTAGGTGGTT: the switch fluorescence ratio is 1.02.

TCAGGATGCA: the switch fluorescence ratio was found to be 1.06.

As to TGCGCCCTGC, the switch fluorescence ratio amounted to 0.954.

Take ACTCTTAACC: the switch fluorescence ratio is 1.08.

With AAGTGGCTAT, the switch fluorescence ratio is 0.989.

With TTGCCACGTT, the switch fluorescence ratio worked out at 0.958.

Consider TGCAACTATA, for which the switch fluorescence ratio was 1.02.

TGAGTTTAG: the switch fluorescence ratio came out at 0.996.

For TTCAAGAGGT, the switch fluorescence ratio amounted to 1.

Consider AAGTTAGCAG, for which the switch fluorescence ratio came out at 0.999.

Consider GGTTTCTA, for which the switch fluorescence ratio worked out at 1.02.

Take AGGCTAGCCG: the switch fluorescence ratio was 1.02.

As for GCCCACGCGG, the switch fluorescence ratio amounted to 1.04.

Turning to TAAGTACTAA, the switch fluorescence ratio came to 1.22.

As for GGGACTGTCG, the switch fluorescence ratio came to 0.842.

As for TGTGGACATG, the switch fluorescence ratio turned out to be 1.07.

Regarding GTACTCGCTC, the switch fluorescence ratio came out at 1.09.

AACTGCAGCC: the switch fluorescence ratio was 1.04.

As to CCTCTCGG, the switch fluorescence ratio was 1.48.

On to GCGGGCCGGT, for which the switch fluorescence ratio is 1.05.

CGGTTCTGG: the switch fluorescence ratio is 0.963.

For the sequence GTAGGAGCAA, the switch fluorescence ratio amounted to 2.68.

Take TTCGGACAGA: the switch fluorescence ratio amounted to 1.

Consider ACGAAGGGCA, for which the switch fluorescence ratio turned out to be 1.03.

With TGTGTTCGCC, the switch fluorescence ratio was 1.03.

Turning to TTCTGGTTAG, the switch fluorescence ratio is 0.979.

As for GAAACTTATT, the switch fluorescence ratio came to 1.04.

In the case of GTGAGTCAC, the switch fluorescence ratio is 0.95.

For the sequence AGTTTCATCC, the switch fluorescence ratio was determined as 1.04.

For TTAAGAGCCC, the switch fluorescence ratio stood at 1.

Turning to GTACGCCTGG, the switch fluorescence ratio amounted to 1.

For the sequence GAATTCCG, the switch fluorescence ratio is 1.06.

As for TCTAAGAGAT, the switch fluorescence ratio turned out to be 0.978.

With GCGGCAGTTG, the switch fluorescence ratio was found to be 1.01.

In the case of GGCTCGAAT, the switch fluorescence ratio was 0.978.

On to TAAAGACTCG, for which the switch fluorescence ratio is 0.983.

For AGAGCATTTT, the switch fluorescence ratio was found to be 1.01.

For the sequence CTGGAGGTAT, the switch fluorescence ratio came out at 1.09.

Regarding AGGGAAATCA, the switch fluorescence ratio came out at 0.987.

For ACGTTATTCG, the switch fluorescence ratio was found to be 1.03.

On to GTATCATCCG, for which the switch fluorescence ratio worked out at 0.975.

TAGAAAG: the switch fluorescence ratio amounted to 1.01.

Take CTCAGCCAAT: the switch fluorescence ratio is 2.47.

As to ATACTCCCTG, the switch fluorescence ratio amounted to 2.09.

In the case of ACACGATATC, the switch fluorescence ratio is 1.24.

In the case of TAAGCTACTC, the switch fluorescence ratio stood at 1.51.

On to GGGTGACGCT, for which the switch fluorescence ratio was 1.03.

As to ACGGATGGAG, the switch fluorescence ratio came to 0.995.

As for CATTACGTCG, the switch fluorescence ratio was 0.944.

With AGCTGTTAGG, the switch fluorescence ratio was found to be 1.01.

Regarding ATGGAAATCG, the switch fluorescence ratio was determined as 0.958.

As for AGTCGGCCCG, the switch fluorescence ratio worked out at 0.938.

Regarding TTATTTTGCC, the switch fluorescence ratio came to 1.02.

With TATTTGGAAT, the switch fluorescence ratio amounted to 1.01.

For GTGTCGATCG, the switch fluorescence ratio is 1.06.

As to CCTTGTTTTC, the switch fluorescence ratio was determined as 1.03.

Consider GAAGGCACCA, for which the switch fluorescence ratio amounted to 1.02.

In the case of AATACGTACC, the switch fluorescence ratio is 1.72.

Turning to TCAACTGCTG, the switch fluorescence ratio is 1.04.

As for ACAGGTGCTG, the switch fluorescence ratio was determined as 1.11.

For TTGGGTTCTA, the switch fluorescence ratio was 0.979.

As to AGGTTCCTAC, the switch fluorescence ratio worked out at 1.01.

For GGTACCTTTT, the switch fluorescence ratio was 0.99.

On to AGAGGCTCTG, for which the switch fluorescence ratio amounted to 0.984.

In the case of GAAATTAATG, the switch fluorescence ratio came to 1.08.

In the case of TTGGTTTGAC, the switch fluorescence ratio was found to be 1.06.

With TTGGGTAA, the switch fluorescence ratio worked out at 0.976.

Turning to TTTGGCATAG, the switch fluorescence ratio was 1.05.

In the case of CCCGCGTCTC, the switch fluorescence ratio came out at 2.29.

For CGGGATGGGC, the switch fluorescence ratio was 1.02.

For CCGTGGCGGT, the switch fluorescence ratio is 1.16.

On to GTCCCAAATT, for which the switch fluorescence ratio was determined as 1.03.

For GATCCATCCC, the switch fluorescence ratio came to 1.01.

In the case of GCTGAAGCTA, the switch fluorescence ratio stood at 1.01.

For the sequence CGGAGCCTAA, the switch fluorescence ratio came to 1.24.

Regarding CTGTTTAAGC, the switch fluorescence ratio came out at 0.987.

TGGAAGACGA: the switch fluorescence ratio is 0.96.

With AGTACCTTGT, the switch fluorescence ratio came to 1.06.

In the case of GAATATTTT, the switch fluorescence ratio came out at 0.98.

On to CCGGTAGGAT, for which the switch fluorescence ratio was 1.01.

Take CAGCGCGAAG: the switch fluorescence ratio amounted to 1.04.

Consider TGAACCTTGT, for which the switch fluorescence ratio was 0.929.

With GCTTTACAAT, the switch fluorescence ratio turned out to be 0.994.

Regarding TGCACTGGGG, the switch fluorescence ratio came to 1.06.

Regarding AGGGCGGGCG, the switch fluorescence ratio is 1.05.

Take CGATCTTGAT: the switch fluorescence ratio was found to be 1.02.

For GTTTGTCGG, the switch fluorescence ratio was determined as 1.03.

GCGAAACATT: the switch fluorescence ratio was 1.04.

Regarding CGCTCAGATA, the switch fluorescence ratio is 1.02.

As for TGTAGCTTAG, the switch fluorescence ratio is 1.06.

Take CGATTACCTG: the switch fluorescence ratio was found to be 0.994.

As for ATACTGTAGC, the switch fluorescence ratio worked out at 1.16.

With ATCATTTCTA, the switch fluorescence ratio was determined as 0.987.

Regarding GACTAACCAG, the switch fluorescence ratio turned out to be 1.02.

For the sequence AAGGTCCTCG, the switch fluorescence ratio is 1.02.

On to CCACCAGAGT, for which the switch fluorescence ratio came out at 2.24.

The values are drawn from the supplement of paper PMC10126150.
